The structures appear in SMILES notation. Out of some 310,000 compounds screened, about 2,200 (0.71%) showed an effect of 50% or more. Effects have a minus sign here. The list shows a part of the results.

human ether-à-go-go-related gene (hERG) potassium channel, sequence (Q12809 whole entry, looked up): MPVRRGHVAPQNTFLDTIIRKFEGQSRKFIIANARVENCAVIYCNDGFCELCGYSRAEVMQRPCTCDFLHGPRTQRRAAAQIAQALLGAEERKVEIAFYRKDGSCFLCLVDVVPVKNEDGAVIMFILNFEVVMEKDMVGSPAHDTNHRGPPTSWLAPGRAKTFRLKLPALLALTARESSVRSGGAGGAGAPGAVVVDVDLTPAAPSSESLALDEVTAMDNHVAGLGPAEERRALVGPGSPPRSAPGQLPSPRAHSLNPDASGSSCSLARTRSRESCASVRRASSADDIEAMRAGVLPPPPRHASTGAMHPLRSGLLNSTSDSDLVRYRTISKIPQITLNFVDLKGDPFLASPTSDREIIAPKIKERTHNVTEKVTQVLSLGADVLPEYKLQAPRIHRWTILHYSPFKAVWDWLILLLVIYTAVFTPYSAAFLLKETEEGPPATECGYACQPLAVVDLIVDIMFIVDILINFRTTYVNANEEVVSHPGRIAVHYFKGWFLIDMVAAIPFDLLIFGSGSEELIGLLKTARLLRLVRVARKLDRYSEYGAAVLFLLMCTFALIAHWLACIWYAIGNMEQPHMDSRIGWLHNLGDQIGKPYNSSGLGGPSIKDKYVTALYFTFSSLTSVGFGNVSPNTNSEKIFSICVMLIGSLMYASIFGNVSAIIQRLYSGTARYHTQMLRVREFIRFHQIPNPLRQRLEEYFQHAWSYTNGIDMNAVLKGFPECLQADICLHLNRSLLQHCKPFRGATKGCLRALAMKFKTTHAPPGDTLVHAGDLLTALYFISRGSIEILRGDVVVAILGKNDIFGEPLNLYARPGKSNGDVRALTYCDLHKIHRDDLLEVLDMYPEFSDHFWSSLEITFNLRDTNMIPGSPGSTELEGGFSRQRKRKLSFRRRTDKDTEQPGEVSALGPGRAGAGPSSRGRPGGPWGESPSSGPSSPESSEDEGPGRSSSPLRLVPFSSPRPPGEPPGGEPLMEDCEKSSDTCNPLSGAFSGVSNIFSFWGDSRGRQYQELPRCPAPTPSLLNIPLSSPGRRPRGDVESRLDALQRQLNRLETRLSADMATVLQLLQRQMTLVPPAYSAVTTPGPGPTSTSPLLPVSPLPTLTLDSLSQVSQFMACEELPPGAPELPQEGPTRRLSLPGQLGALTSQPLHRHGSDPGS

The assay concerns the target human ether-à-go-go-related gene (hERG) potassium channel (human, UniProt Q12809). Kind of assay: primary screen, population patch clamp on CHO cells stably expressing hERG.
For `Cc1cccc(N(C(=O)c2csnn2)C(C(=O)NCc2ccccc2)c2ccncc2)c1` (centres unmarked), the “hERG current change (%, negative = inhibition) at 1uM” value is listed as -3.14%. For `CC(=O)Nc1cc(C(=O)NCCN2CCN(Cc3ccccc3)CC2)ccc1Sc1ccc(C)cc1` the value was -22.5%. The value for `COc1ccc(CCN2C(=O)CC(N3CCC(C(N)=O)CC3)C2=O)cc1OC` (centres unmarked) was 12.9%; that for `O=C1C2C(c3ccccc3)CC=CC2[C@H](c2ccc3ccccc3c2)N1Cc1ccccc1` (some centres unmarked) was 18.2%; that for `COC(=O)C(NC(=O)CCC(=O)NC(C(=O)OC)c1ccccc1)c1ccccc1` (centres unmarked) was 8.72%. For `Cc1cc(=O)oc(C)c1C(=O)NCc1c(F)cc(F)cc1F` the value was -8.53%; for `O=C(N/N=C/c1cc(Br)cc(Br)c1O)c1ccncc1`, 5.33%.

`Cc1ccc(S(=O)(=O)N2CCN(C(=O)COC(=O)Cc3ccccc3)CC2)c(C)c1`: the “hERG current change (%, negative = inhibition) at 1uM” value is given as 10%. The value for `Cc1ccc2c(c1)C1CN(C)CCC1N2C(=O)c1ccc(Br)o1` (centres unmarked) was 2.7%; that for `CCOc1ccccc1N1CCN(C(=O)Nc2cccc(Cl)c2)CC1` was 9.41%. The value for `Cc1n[nH]c(=S)n1/N=C/c1ccccc1OCc1ccc(Cl)cc1` was 6.28%; that for `C/C=C(\C)CN1CCC(n2nccc2NC(=O)c2ccc(OC)cc2)CC1` was 8.77%; that for `Cc1ccc(C)c(NC(=S)NC(NC(=O)OCc2ccccc2)C(Cl)(Cl)Cl)c1` (centres unmarked) was 8.68%. With `CCOc1ccc(CN(C)C(=O)CNC(=O)c2cc(OC)c(OC)c(OC)c2)cc1`, the “hERG current change (%, negative = inhibition) at 1uM” value was 14.1%. For `COc1ccccc1C1=Nc2cccc3cccc(c23)N1` the value was 11.1%; for `CC(NC(=O)c1ccccc1)C(=O)NNC(=O)c1ccccc1Cl` (centres unmarked), 7.02%; for `CCOC(=O)N1CCN(C(=O)c2ccc(S(=O)(=O)c3ccc(C)cc3)c(NC(C)=O)c2)CC1`, 3.85%. Take `O=C(c1cccs1)N1CCC(c2nc3c(nnn3Cc3cccc(Cl)c3)c(=O)[nH]2)CC1`: the “hERG current change (%, negative = inhibition) at 1uM” value is listed as 6%. In the case of `CC(C)(C)OC(=O)NCCCC1=CC2=CC(=O)C(C)(OC(=O)C3CCCC3)C(=O)C2=CO1` (centres unmarked), the “hERG current change (%, negative = inhibition) at 1uM” value is 3.89%. For `Cc1ccc(NC(=O)c2ccc(Cl)c(N3C(=O)CCC3=O)c2)cc1` the value was 15%; for `CCOC(=O)COc1cc2oc(=O)cc(C)c2cc1[N+](=O)[O-]`, -3.43%; for `Cc1c(C)c(C)c(S(=O)(=O)N2CCC3(CC2)OCCO3)c(C)c1C`, -1.4%.

Turning to `Cc1ccccc1NC(=O)CCc1nnc2ccc(N3CCC4(CC3)OCCO4)nn12`, the “hERG current change (%, negative = inhibition) at 1uM” value is recorded as 15.3%. For `CC(c1nnc(SCC(=O)N(C)C2CCS(=O)(=O)C2)n1-c1ccccc1)N(C)C` (centres unmarked) the value was 3.36%; for `Cc1oc2c(c1C(=O)Nc1ccc(C(=O)O)cc1)CCCC2`, 8.34%. The value for `O=C(Cc1csc(-c2ccccc2)n1)NCc1ccccc1F` was 7.58%. Take `O=C(/C=C/c1ccc[nH]1)c1ccc(F)cc1`: the “hERG current change (%, negative = inhibition) at 1uM” value is 16.7%. Consider `COc1cccc(CNS(=O)(=O)c2c(C)nc3scc(C)n3c2=O)c1`, for which the “hERG current change (%, negative = inhibition) at 1uM” value was found to be 16.6%. For `Fc1ccccc1C1c2[nH]c3ccccc3c2CCN1Cc1ccoc1` (centres unmarked) the value was -15.8%.

Turning to `CCOC(=O)c1ccc(CS(=O)c2ccc(Cl)cc2)o1` (centres unmarked), the “hERG current change (%, negative = inhibition) at 1uM” value was 1.53%. The value for `Cc1ccc(Cl)cc1NC(=O)COC(=O)c1ccccc1O` was 8.66%.

Regarding `CC(=O)N(C)c1ccc(OCC(O)Cn2c3ccc(Cl)cc3c3cc(Cl)ccc32)cc1` (centres unmarked), the “hERG current change (%, negative = inhibition) at 1uM” value is recorded as -1.16%. As to `COc1ccc(C(=O)Nc2cccnc2Sc2ccc(Cl)cc2)cc1`, the “hERG current change (%, negative = inhibition) at 1uM” value is listed as 5.4%. The value for `O=C(Nc1ccc(O)c(C(=O)O)c1)c1cccc(NC(=O)c2ccco2)c1` was 6.69%. For `CSc1nc(C)c(Cc2c(F)cccc2Cl)c(=O)[nH]1` the value was 15.2%; for `COC(=O)c1ccc(=O)c2nc3/c(=C/O)c(O)cc(=O)c3[nH]c12`, -3%; for `CCc1nn(CC(=O)N2CCCCCC2)c(=O)c2cc3ccccc3n12`, 6.68%. `CN(C)S(=O)(=O)c1ccc(NC(=O)c2cccnc2)cc1`: the “hERG current change (%, negative = inhibition) at 1uM” value came out at 7.75%. For `CC(C1CC1)N(Cc1ccccc1)C(=O)NC(=O)c1ccc(F)cc1` (centres unmarked) the value was 9.3%. `Cc1nonc1OCCNc1ccc([N+](=O)[O-])cc1[N+](=O)[O-]`: the “hERG current change (%, negative = inhibition) at 1uM” value is recorded as -6.21%. As for `CC1CCCCN1Cc1c(O)ccc2c(=O)c(-c3ccccc3)coc12` (centres unmarked), the “hERG current change (%, negative = inhibition) at 1uM” value is reported as -6.67%. The value for `O=C(CSc1nnc(COc2ccccc2Cl)o1)Nc1ccccc1` was 7.62%; that for `CCCCc1ccc(NS(=O)(=O)c2cccs2)cc1` was 4.98%; that for `COc1ccc(C2(C)NC(=O)N(CC(=O)Nc3cccnc3Cl)C2=O)cc1` (centres unmarked) was 8.98%. For the molecule `CCOC(=O)c1sc(NC(=O)c2cccc(S(=O)(=O)N(CC)CC)c2)cc1C`, the “hERG current change (%, negative = inhibition) at 1uM” value is on record as 3.61%.

As to `COc1ccccc1N(CC(=O)NC1CCCC1)S(=O)(=O)c1ccc(C)cc1`, the “hERG current change (%, negative = inhibition) at 1uM” value came out at 14.1%. The value for `Cc1nn(CCC(=O)NNC(=S)Nc2ccc(F)cc2)c(C)c1Br` was 9.11%; that for `CS(=O)(=O)c1nc(-c2cccs2)cc(C(F)(F)F)n1` was 2.1%.

With `O=C(O)c1cc(-c2ccccc2)n(-c2ccccc2)n1`, the “hERG current change (%, negative = inhibition) at 1uM” value is -1.97%. As for `Cc1ccc(N(C(C)C(=O)O)S(=O)(=O)c2c(C)[nH]c(=O)[nH]c2=O)cc1` (centres unmarked), the “hERG current change (%, negative = inhibition) at 1uM” value is 12.4%. For the molecule `Br.c1ccc(-c2cn3c4c(sc3n2)CCCC4)cc1`, the “hERG current change (%, negative = inhibition) at 1uM” value worked out at 12.7%. For `COc1ccc(OC)c(-c2cc(C(=O)Nc3c(C)nn(Cc4ccccc4)c3C)no2)c1` the value was 4.18%; for `Cc1ccc(C(=O)N2CCN(Cc3ccc4c(c3)OCO4)CC2)o1`, 3.6%; for `Cc1ccc2c(c1)C(O)(c1c(C)[nH]c3ccccc13)C(=O)N2` (centres unmarked), 15.9%. For `O=C(NNC(=O)C12CC3CC(CC(C3)C1)C2)c1ccncc1` the value was 13.1%. As for `CCOC(=O)c1c(C)nc2c(C)cccn12`, the “hERG current change (%, negative = inhibition) at 1uM” value is 2.81%.

The values above are taken from article PMC4336329 (PLoS ONE, 2015).
